Measurements from PubChem BioAssay (NCATS).
The shares of active, inactive and inconclusive entries below differ from those in the screen. For some assays here: Where the call is inconclusive, the potency comes from a doubtful curve fit. For some assays here: “Side channel” marks fits to a control or component signal instead of the main read-out. Calls of active or inactive are those of the source. Unless noted, calls come from the whole dose curve; as a rule, active = well fitted curve in either direction with a large enough effect (not every such curve was filed as active); inconclusive = small, poorly fitted or top-dose-only effect, or another doubt; inactive = flat fitted curve, though single readings scatter.

Tests used:
[1] = NFAT Signaling Pathway (AID 444); settings: Jurkat NFAT-bla M1, carbachol, beta-lactamase ratio, 5 h; at 17.2 µM (top of the series) unless noted;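 note: carbachol stimulus at about its EC50 of 1 µM final; % is set by controls: 0 for no effect and ±100 for the full control effect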
Procedure, shortened: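 Jurkat cells with NFAT-driven β-lactamase reporter and co-expressed M1 receptor, stimulated with carbachol (final 1 uM, ~EC50), compound titration, 5 h at 37 °C. CCF4 loaded 1 h at RT; 460/530 nm ratio gave %activity and AC50.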

[2] = Stat Signaling Pathway (AID 446); settings: ME-180 SIE beta-lactamase reporter, IL-6 stimulated, 5 h; at 7.69 µM (top of the series) unless noted;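 note: ME-180 cervical cancer cells given 40 pM IL-6 alongside compound; SIE-controlled beta-lactamase reporter measured as 460/530 nm FRET emission ratio; top concentration of the series differs between compounds; % is set by controls: 0 for no effect and ±100 for the full control effect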
Procedure, shortened: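 Overnight-plated ME-180 cells bearing a STAT Inducible Element beta-lactamase reporter; 5 h co-exposure to compound and 40 pM IL-6; values normalized to 300 pM IL-6 and 125 nM JAK inhibitor controls.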

[3] = qHTS Assay for Identification of Small Molecule Agonists for Hypoxia Response Element Signaling Pathway (AID 914; active = well fitted activation curve with a large enough effect in the signal ratio, with a control signal flat, not every such curve was filed as active; inconclusive = small, poorly fitted or top-dose-only effect, or effect the other way, or a change in a side signal; the % refers to the signal ratio; note: potency is the fitted concentration of half-maximal effect; for activation: top concentration of the series differs between compounds; % of control where 0% means no effect); settings: ME-180 HRE-bla reporter, beta-lactamase ratio, CoCl2, 17 h; activation: active compounds read high
Procedure, shortened: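 Reporter activity (beta-lactamase, CCF4 460nm/530nm ratio) in HRE-bla ME-180 cells is recorded after 17 h compound exposure with EC50 CoCl2 at 37 degrees Celsius. AC50 values come from titration data.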

[4] = qHTS Assay for Identification of Small Molecule Antagonists for NFkB Signaling Pathway (AID 895; active = well fitted inhibition curve with a large enough effect in the signal ratio, with a control signal flat, not every such curve was filed as active; inconclusive = small, poorly fitted or top-dose-only effect, or effect the other way, or a change in a side signal; the % refers to the signal ratio; note: potency is the fitted concentration of half-maximal effect); settings: NFkB beta-lactamase reporter cells, FRET ratio 460/530, stimulated with 10 pM TNF alpha; activity change, negative = inhibition: at 38.3 µM (top of the series)
Procedure, shortened: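 ME-180 NFkB-bla cells (beta-lactamase under NFkB response element), plated overnight, treated with compound then 10 pM TNF alpha (about EC50) for 5 hrs at 37 C. LiveBLAzer FRET read at 460/530 nm emission, 405 nm excitation.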

[5] = qHTS Assay for Identification of Small Molecule Antagonists for Thrombopoietin (TPO) Signaling Pathway (AID 918; active = well fitted curve in the direction sought with a large enough effect; inconclusive = small, poorly fitted or top-dose-only effect, or another doubt; inactive = no such curve, though single readings can be large; an effect the other way counts as inactive or inconclusive; note: nearly all actives have a fitted effect of over 60% in size); settings: TPO-dependent cell signaling reporter, antagonist mode; activity change, negative = inhibition: at 38.5 µM (top of the series)
Procedure, shortened: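 Luminescence read-out: GPIIb-promoter luciferase in Ba/F3 cells carrying human TPO receptor. Compounds added with 26 pM TPO (EC50), 24 hrs, 37 C, 5% CO2; cells deprived of IL-3 overnight beforehand. Inhibition of signal scored.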

[6] = biological target: Muscarinic acetylcholine receptor M1 (Rattus norvegicus) (UniProt P08482); assay: qHTS Assay for Antagonists of Acetylcholine Muscarinic M1 Receptor: Kinetic Measurement of Intracellular Calcium Response (AID 943; active = well fitted curve in the direction sought with a large enough effect; inconclusive = small, poorly fitted or top-dose-only effect, or another doubt; inactive = no such curve, though single readings can be large; an effect the other way counts as inactive or inconclusive; note: potency is the fitted concentration of half-maximal effect; nearly all actives have a fitted effect of over 75% in size)
Procedure, shortened: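 Read-out: peak over basal Fluo-4 fluorescence, kinetic at 1 Hz for 4 min after EC80 carbachol (100 nM final). Rat M1-CHO cells, dye loaded 1 h at 37C, compound added 10 min before agonist.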

[7] = biological target: Muscarinic acetylcholine receptor M1 (Rattus norvegicus) (UniProt P08482); assay: qHTS Assay for Antagonists of Acetylcholine Muscarinic M1 Receptor: Measurement of IP-One Response (AID 944; active = well fitted curve in the direction sought with a large enough effect; inconclusive = small, poorly fitted or top-dose-only effect, or another doubt; inactive = no such curve, though single readings can be large; an effect the other way counts as inactive or inconclusive; note: potency is the fitted concentration of half-maximal effect; nearly all actives have a fitted effect of over 75% in size)
[8] = biological target: Cytochrome P450 2C19 (Homo sapiens) (UniProt P33261); assay: qHTS Assay for Inhibitors and Substrates of Cytochrome P450 2C19 (AID 899; active = well fitted curve in the direction sought with a large enough effect; inconclusive = small, poorly fitted or top-dose-only effect, or another doubt; inactive = no such curve, though single readings can be large; an effect the other way counts as inactive or inconclusive; note: potency is the fitted concentration of half-maximal effect; nearly all actives have a fitted effect of over 60% in size)
Procedure, shortened: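 Signal comes from luciferase acting on luciferin released by CYP2C19-mediated hydroxylation of Luciferin-H EGE, 10uM (KM). Assay mix: 5nM enzyme, 50mM KPO4; 60 min at 37C with NADPH regeneration. Data normalized against 57uM ketoconazole.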
Tags give direction and shape of the fitted curve or compound fluorescence and quenching.

Chain of UniProt P08482 (P08482 whole entry, looked up): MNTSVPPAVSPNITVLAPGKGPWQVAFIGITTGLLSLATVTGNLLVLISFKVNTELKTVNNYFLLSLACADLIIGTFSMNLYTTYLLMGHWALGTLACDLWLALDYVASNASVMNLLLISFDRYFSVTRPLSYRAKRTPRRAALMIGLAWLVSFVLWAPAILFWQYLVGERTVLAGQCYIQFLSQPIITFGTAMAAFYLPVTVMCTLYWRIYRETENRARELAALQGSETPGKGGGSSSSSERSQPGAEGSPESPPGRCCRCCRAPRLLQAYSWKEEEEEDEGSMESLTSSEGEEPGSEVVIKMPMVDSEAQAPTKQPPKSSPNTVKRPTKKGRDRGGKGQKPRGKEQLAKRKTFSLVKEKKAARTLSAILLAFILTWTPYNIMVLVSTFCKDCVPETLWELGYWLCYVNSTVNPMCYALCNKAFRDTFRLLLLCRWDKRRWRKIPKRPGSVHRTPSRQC
Chain of UniProt P33261 (P33261 whole entry, looked up): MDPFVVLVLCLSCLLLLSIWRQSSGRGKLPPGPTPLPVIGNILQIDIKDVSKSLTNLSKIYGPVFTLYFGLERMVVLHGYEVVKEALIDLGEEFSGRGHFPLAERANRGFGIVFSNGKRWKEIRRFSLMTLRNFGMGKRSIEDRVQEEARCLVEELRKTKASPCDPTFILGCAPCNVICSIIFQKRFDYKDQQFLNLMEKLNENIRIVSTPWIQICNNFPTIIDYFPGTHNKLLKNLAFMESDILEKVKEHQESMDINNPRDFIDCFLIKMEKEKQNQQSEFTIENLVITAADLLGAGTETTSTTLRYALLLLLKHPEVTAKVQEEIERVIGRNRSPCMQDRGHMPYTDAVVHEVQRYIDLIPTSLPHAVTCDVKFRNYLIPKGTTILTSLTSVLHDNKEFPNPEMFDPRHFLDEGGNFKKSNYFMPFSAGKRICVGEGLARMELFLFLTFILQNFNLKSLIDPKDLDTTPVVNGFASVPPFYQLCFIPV

In the case of `N#CC1=C(N)OC2=C(C(=O)CCC2)[C@]12C(=O)N(CC(N)=O)c1ccccc12`, the activity change, negative = inhibition [1] is reported as inconclusive: -42.4% [inhibitor], the activity, negative = inhibition [2] is reported as inactive: 1.02% [at 17.2 µM] and the activation [3] is reported as inactive: -22.1%.
In the case of `CCNC(=O)c1cc2c(=O)n3cccc(C)c3nc2n(CCc2ccccc2)c1=N`, the activity change, negative = inhibition [1] is reported as inconclusive: -25.7% [inhibitor], the activity, negative = inhibition [2] is reported as inconclusive: 42.6% [activator] [at 17.2 µM] and the Potency [3] is reported as active: 10 µM.
In the case of `COc1ccc(-c2nn3c(COc4ccccc4)nnc3s2)cc1OC`, the activity change, negative = inhibition [1] is reported as inactive: 6.83%, the activity, negative = inhibition [2] is reported as inconclusive: 71% [activator] [at 17.2 µM] and the activation [3] is reported as inactive: -19.3%.
With `CCc1nc(NC2CCCCC2)c(C#N)c2c1COC(C)(C)C2` the activity change, negative = inhibition [1] was inconclusive: -76.4% [inhibitor], the activity, negative = inhibition [2] was inactive: 7.37% [at 17.2 µM] and the Potency [3] was inconclusive: 3.98 µM [inhibitor, partial curve].
For `CCCCCCCCCCCCCCCC(=O)NC[C@@H](COP(=O)([O-])OCC[N+](C)(C)C)OCC`, the activity change, negative = inhibition [1] was active: 16.7% [at 38 µM], the activity, negative = inhibition [2] was inconclusive: 97.2% [inhibitor] [at 38 µM] and the Potency [4] was inconclusive: 11.2 µM [cytotoxic, side channel, single point]. For the same compound, the Potency [3] was inconclusive: 15.8 µM [cytotoxic, side channel, partial curve], the activity change, negative = inhibition [5] was inconclusive: -18.2% [phenotype inactive] and the Potency [6] was active: 11.2 µM. The Potency [7] was inconclusive: 17.8 µM [inhibitor, partial curve, poor fit].
In the case of `CC(C)(C)OC(=O)N1CC=C2C(C#N)=C(N)C(C#N)(C#N)[C@H](c3cccnc3)[C@H]2C1`, the activity change, negative = inhibition [1] is reported as inactive: 4.36%, the activity, negative = inhibition [2] is reported as inconclusive: 154% [activator] [at 17.2 µM] and the Potency [3] is reported as inconclusive: 3.16 µM [inhibitor, full curve].
For `Cc1cc(C)c(C#N)c(SCc2[nH]nc3c2C(c2ccccc2)C(C#N)=C(N)O3)n1` (stereo unspecified), the activity change, negative = inhibition [1] was inconclusive: -54.2% [inhibitor], the activity, negative = inhibition [2] was inconclusive: -33.8% [inhibitor] [at 17.2 µM] and the activation [3] was inactive: -8.62%.
In the case of `COc1cccc(-c2nc(NCC3CCCO3)c3ccccc3n2)c1O` (stereo unspecified), the activity change, negative = inhibition [1] is reported as inconclusive: -71.5% [inhibitor], the activity, negative = inhibition [2] is reported as inconclusive: -33.5% [inhibitor] [at 17.2 µM] and the Potency [3] is reported as inconclusive: 3.16 µM [inhibitor, full curve].
With `Cc1ccc(S(=O)(=O)N2CCN(c3nc(C)c4c(c3C#N)CC(C)(C)OC4)CC2)cc1` the activity change, negative = inhibition [1] was inconclusive: -34.7% [inhibitor], the activity, negative = inhibition [2] was active: 89.5% [activator] [at 17.2 µM] and the activation [3] was inconclusive: -22.8%.
For `Cc1nn(-c2ccccc2)c2c1C(c1ccc(F)cc1F)C(C#N)=C(N)O2` (stereo unspecified), the activity change, negative = inhibition [1] was inconclusive: -62.5% [inhibitor], the activity, negative = inhibition [2] was inconclusive: -41.1% [inhibitor] [at 17.2 µM] and the activation [3] was inactive: -12.7%.
With `CN1CCc2c(sc3c2c(=O)n(-c2ccccc2)c2nnc(SCc4ccccc4)n32)C1` the activity change, negative = inhibition [1] was inconclusive: -67.2% [inhibitor], the activity, negative = inhibition [2] was inconclusive: 36.5% [activator] [at 17.2 µM] and the Potency [3] was inconclusive: 5.01 µM [inhibitor, partial curve].
With `COc1ccc(OC)c(NS(=O)(=O)c2ccc(N3CCCC3=O)cc2)c1` the activity change, negative = inhibition [1] was inconclusive: -65.3% [inhibitor], the activity, negative = inhibition [2] was inactive: 11.3% [at 17.2 µM] and the Potency [3] was inconclusive: 3.98 µM [inhibitor, partial curve].
In the case of `Clc1ccc(-c2nnc3sc(Cc4cccs4)nn23)cc1`, the activity change, negative = inhibition [1] is reported as inconclusive: -46.4% [inhibitor], the activity, negative = inhibition [2] is reported as inconclusive: 40.3% [activator] [at 17.2 µM] and the Potency [3] is reported as inconclusive: 2.51 µM [inhibitor, full curve].
In the case of `COc1ccc(/C(O)=C2\C(=O)C(=O)N(c3cc(C)on3)C2c2ccccc2OC)cc1` (stereo unspecified), the activity change, negative = inhibition [1] is reported as inconclusive: 38.4% [activator], the activity, negative = inhibition [2] is reported as inconclusive: -37.4% [inhibitor] [at 17.2 µM] and the activation [3] is reported as inconclusive: -18.4%.
For `Oc1ccc(Cl)cc1Cc1cc(Cl)cc(Cc2cc(Cl)ccc2O)c1O`, the activity change, negative = inhibition [1] was inconclusive: -116% [inhibitor] [at 7.69 µM], the activity, negative = inhibition [2] was inconclusive: -49.3% [inhibitor] and the Potency [8] was active: 1.26 µM. The Potency [3] was inconclusive: 3.16 µM [inhibitor, single point].
With `Cc1ccnc(N2CCN(c3cc(C)c(C#N)c4nc5ccccc5n34)CC2)c1` the activity change, negative = inhibition [1] was inconclusive: 85.1% [activator], the activity, negative = inhibition [2] was inconclusive: 46.1% [activator] [at 17.2 µM] and the activation [3] was inconclusive: 94%.
With `O=c1c(-c2cccs2)nc2cnc(N3CCOCC3)nc2n1Cc1ccc(F)cc1` the activity change, negative = inhibition [1] was inactive: 27.2% [at 7.69 µM], the activity, negative = inhibition [2] was inconclusive: 42.4% [activator] and the Potency [3] was inconclusive: 2 µM [activator, partial curve].
